In PubChem BioAssay AID894 (National Center for Advancing Translational Sciences (NCATS), 2007):
Several values for one entry are separate records, joined by “and”; a condition that tells them apart may be missing. Equal entries are not always repeated. The campaign covered roughly 150,000 compounds. About 6,500 (4.3%) were called active. Inconclusive results, whose numbers are uncertain, are shown with a selection of clear calls. Calls follow the shape of the dose curve; as a rule, active = well fitted inhibition curve with a large enough effect (not every such curve was filed as active); inconclusive = small, poorly fitted or top-dose-only effect, or another doubt; inactive = no such curve, though single readings can be large or run the other way. Potencies of inconclusive entries are left out as doubtful fits. A structure can be active in one record and inactive in another.

The compounds below were run against 15-hydroxyprostaglandin dehydrogenase [NAD(+)] (Homo sapiens) (UniProt P15428) (assay: qHTS Assay for Inhibitors of HPGD (15-Hydroxyprostaglandin Dehydrogenase)). Conditions: purified HPGD, NADH fluorescence kinetic, PGE2 substrate; activity change, negative = inhibition: stronger effect = lower value.
Method in brief: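 20 nM HPGD preincubated 15 min at room temperature with compound in 50 mM Tris-HCl pH 8, 0.01% Tween 20. Started with 1 mM NAD+ and 30 uM prostaglandin E2; NADH fluorescence (360/450 nm) read 5 times over 30-s intervals, last minus first.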
% is scaled to controls: 0 for no effect and ±100 for the full control effect; potency is read from the fitted curve at half-maximal effect; tags tell the direction and shape of the fitted curve.

UniProt P15428, sequence (P15428 whole entry, looked up): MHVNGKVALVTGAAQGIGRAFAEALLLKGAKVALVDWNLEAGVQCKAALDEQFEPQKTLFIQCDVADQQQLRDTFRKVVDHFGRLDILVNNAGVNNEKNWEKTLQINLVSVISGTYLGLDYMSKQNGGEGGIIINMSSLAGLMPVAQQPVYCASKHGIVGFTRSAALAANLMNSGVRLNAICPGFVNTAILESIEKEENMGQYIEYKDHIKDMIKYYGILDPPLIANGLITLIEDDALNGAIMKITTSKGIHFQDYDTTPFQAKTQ

Row | Structure (SMILES) | Potency | activity change, negative = inhibition
1 | O=c1[nH]c(=O)n(Cc2ccco2)c2c1C(C(F)(F)F)(C(F)(F)F)N=C(CCC1CCCCC1)N2 | inconclusive [inhibitor, partial curve] | –
2 | COc1ccc(NC(=O)c2oc3ccccc3c2NC(=O)c2ccco2)c(OC)c1 | inconclusive [inhibitor, partial curve] | –
3 | S=C1N[C@H](c2ccccc2)N[C@H](c2ccccc2)S1 | inconclusive [inhibitor, single point] | –
4 | COC(=O)c1cc(-c2ccc3ccccc3c2)[nH]c(=O)c1C#N | inconclusive [inhibitor, partial curve] | –
5 | COc1ccc(-c2cnc3c(c2)CCC3(C#N)C#N)cc1 | inconclusive [inhibitor, partial curve] | –
6 | COC(=O)[C@@]1(Cc2ccc(OC)cc2)[C@H]2c3cc(C(=O)N(C)C)n(Cc4ccc(C)o4)c3C[C@H]2CN1C(=O)c1ccccc1 | active: 25.1 µM | –
7 | CC(=O)Nc1ccc(N2S(=O)(=O)c3ccccc3S2(=O)=O)cc1 | inconclusive [inhibitor, single point] | –
8 | CCCCOC(=O)c1ccc(NC(=O)C2CCCO2)cc1 (centres undefined) | – | inactive: -29.6%
9 | COC(=O)CSc1nnc(-c2sc3ccccc3c2Cl)o1 | inconclusive [inhibitor, partial curve] | –
10 | COc1ccc(-c2ccc(-c3noc(-c4cccs4)n3)c(OC)n2)cc1 | inconclusive [inhibitor, partial curve] | –
11 | NC(=O)N1c2ccccc2C=Cc2ccccc21 | – | inactive: -5.46% [middle of 5 runs]
12 | N/C(Cc1cccc2ccccc12)=N\OC(=O)Cc1cccs1 | active: 28.2 µM | –
13 | O=C(c1ccc2c(c1)OCO2)N1CCc2ccccc2C1 | active: 0.447 µM | –
14 | Cc1ccc2nc(-c3ccc(NS(C)(=O)=O)cc3)cc(-c3ccccc3)c2c1 | inconclusive [inhibitor, partial curve] | –
15 | COC(=O)c1sccc1NC(=O)c1cccnc1 | active: 28.2 µM | –
16 | CC(C)(C)OC(=O)NCC12C=CC(O1)C1C(=O)N(Cc3ccccc3)C(=O)C12 (centres undefined) | – | inactive: -10.5%
17 | CCOc1ccccc1N1CSC2=C(C#N)C(c3c(OC)ccc4ccccc34)CC(=O)N2C1 (centres undefined) | active: 7.08 µM | –
18 | CC(C)CN1C(=O)c2ccc(NC(=O)c3cccs3)cc2C1=O | inconclusive [inhibitor, partial curve] | –
19 | COc1ccc(-c2nnc3sc(-c4cccs4)nn23)cc1OC | inconclusive [inhibitor, partial curve] | –
20 | Cc1cccc(N2CCN(C(=O)/C=C/c3cccs3)CC2)c1C | inconclusive [inhibitor, partial curve] | –
21 | CC(O)[C@@H](O)[C@H]1CNc2nc(N)[nH]c(=O)c2N1 (some centres undefined) | inconclusive [inhibitor, partial curve] | –
22 | Cn1cc(Br)c(C(=O)N/N=C/c2cccc(OC3CSC3)c2)n1 | inconclusive [inhibitor, partial curve, poor fit] | –

Row | Structure (SMILES) | Potency | activity change, negative = inhibition
23 | COc1ccc(OC)c(NC(=O)C23CCC(C)(C(=O)C2)C3(C)C)c1 (centres undefined) | – | inactive: -8.06%
24 | S=C(Nc1ccc2nsnc2c1)NC1CCCCC1 | inconclusive [inhibitor, partial curve] | –
25 | Cc1cc(C)n(-c2nc3ccccc3[nH]c2=O)n1 | inconclusive [inhibitor, partial curve] | –
26 | CC(=O)Nc1ccc(N/C(C)=C/C(=O)c2cccnc2)cc1 | inconclusive [inhibitor, partial curve] | –
27 | COc1ccc(/C=N/NC(=O)c2cccc(Br)c2)cc1Cn1cc(Cl)cn1 | inconclusive [inhibitor, partial curve] | –
28 | CC1=C(C#N)C(c2ccccc2)C2=C(N1)c1ccccc1C2=O (centres undefined) | active: 22.4 µM | –
29 | CCOC(=O)C1CCN(c2c(N3CCN(c4ccccc4OC)CC3)c(=O)c2=O)CC1 | inconclusive [inhibitor, partial curve] | –
30 | CC1CCCCC1NC(=O)c1ccc(S(=O)(=O)N2CCCC2)cc1 (centres undefined) | – | inactive: -0.28%
31 | CCn1c(=O)cc(OCC(=O)NCc2ccc(C)o2)c2ccccc21 | inconclusive [inhibitor, partial curve] | –
32 | C/C(=C\c1ccccc1)C(=O)NC1CCSC1=O (centres undefined) | inconclusive [inhibitor, single point] | –
33 | CCOC(=O)c1c(-c2ccccc2)cn2ccccc12 | inconclusive [inhibitor, partial curve] | –
34 | C=CCNc1nc(N)c(C(=O)c2ccc3c(c2)OCO3)s1 | inconclusive [inhibitor, single point] | –
35 | COC(=O)c1[nH]c2cc(OC)ccc2c1NC(=O)CN1CCOCC1 | inconclusive [inhibitor, partial curve] | –
36 | CCn1c(=O)c2c(n3cnnc13)-c1ccccc1CC21CCCCC1 | – | inactive: -3.44%
37 | O=C(O)c1cccc(-c2ccc(/C=N/NC(=O)c3cccnc3)o2)c1 | inconclusive [inhibitor, partial curve] | –
38 | O=C(N/N=C/c1c[nH]c2ccccc12)c1ccn(Cc2ccc(Cl)cc2Cl)n1 | inconclusive [inhibitor, partial curve] | –
39 | CCCCN(C)C(=O)CCC(=O)Nc1ccc2nc(N3CCOCC3)cc(C)c2c1 | inconclusive [inhibitor, partial curve] | –
40 | Cc1nn(-c2ccccc2)c2sc(C(=O)N(CC(=O)NC(C)(C)C)Cc3ccco3)cc12 | – | inactive: -28%
41 | O=Cc1cn(-c2ccccc2)nc1-c1cc2cc(O)ccc2oc1=O | inconclusive [inhibitor, full curve] | –
42 | Cc1c(Cl)cccc1NC(=O)CN1CCC(NC(=O)C2CCCCC2)CC1 | – | inactive: -11.3%
43 | O=C(Nc1ccc(N2CCCC2)cc1)c1cccc(-c2cc3ccccc3oc2=O)c1 | active: 8.91 µM | –
44 | O=c1cc(-c2ccc(O)cc2)oc2cc(O)cc(O)c12 | active: 3.55 µM and active: 31.6 µM | –
